Consider 109 sequences from PMC6212790.

The list shows a part of the results. At the low end of the ranking, values are background and their order means little.

In this test the target is T1, GST-Rok (full length) (UniProt O34857).
T1 sequence: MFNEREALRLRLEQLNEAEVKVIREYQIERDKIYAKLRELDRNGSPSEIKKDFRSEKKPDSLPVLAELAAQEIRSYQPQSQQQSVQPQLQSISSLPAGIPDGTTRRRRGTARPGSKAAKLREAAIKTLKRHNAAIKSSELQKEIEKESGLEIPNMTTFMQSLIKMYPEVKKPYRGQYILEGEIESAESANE
Nature of the test: protein binding microarray.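 Note: rank score from −0.5 (least bound) to 0.5 (best bound).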 The settings on record: Rok is a gene silencer of Bacillus subtilis; high values mean tight binding; most listed sequences are background and not binding sites; double strand, one strand shown.
For the sequence GAATAGTC, the binding signal is -0.0285 E-score.

On to AACCATCG, for which the binding signal was -0.0207 E-score.

For the sequence CGCTGCTC, the binding signal was -0.226 E-score.

For CGCACACC, the binding signal was -0.0981 E-score.

As to CGCTAGCC, the binding signal was -0.156 E-score.

TGCCCTAA displayed a binding signal of -0.161 E-score.

As to CCGTGTAC, the binding signal was -0.0486 E-score.

Sequence CTCTTGTA registered a binding signal of 0.0452 E-score.

The sequence CGATTTTA gave a binding signal of 0.269 E-score.

The sequence CCCTGTGC registered a binding signal of -0.092 E-score.

As to AAAGAAAA, the binding signal is -0.0605 E-score.

With CGGTCGAC, the binding signal is -0.308 E-score.

On to GCGGTTCA, for which the binding signal was 0.0601 E-score.

The sequence CCTCAGAG registered a binding signal of -0.233 E-score.

CTGCATCC showed a binding signal of 0.0123 E-score.

AACTCTGT returned a binding signal of 0.0607 E-score.

Regarding CGCTGTGA, the binding signal was -0.0511 E-score.

For CACGGGAA, the binding signal is -0.0768 E-score.

Take ACTAGGCG: the binding signal is -0.156 E-score.

In turn, CTAATCCA gave a binding signal of 0.0912 E-score.

As to ATTAGATA, the binding signal was found to be 0.367 E-score.

Regarding TCCCCAGA, the binding signal is -0.4 E-score.

With CTGGTGGA, the binding signal is -0.272 E-score.

Sequence CACCAAAA showed a binding signal of -0.0363 E-score.

GGTCACGA: the binding signal was -0.0974 E-score.

Sequence CAACCAGC came in with a binding signal of -0.255 E-score.

Regarding ATGACAAT, the binding signal came to 0.145 E-score.

In the case of ACTTTTGC, the binding signal was determined as 0.0319 E-score.

ATACGTTG: the binding signal is 0.0846 E-score.

With AATCATGT, the binding signal is -0.00113 E-score.

In turn, AGCTATAC registered a binding signal of 0.151 E-score.

Turning to CGACCCTA, the binding signal was -0.153 E-score.

ACACCTGC yielded a binding signal of -0.0529 E-score.

On to CCCAGCAG, for which the binding signal is -0.167 E-score.

In turn, ATCTAACG displayed a binding signal of 0.233 E-score.

As to AAACGCTG, the binding signal was 0.0976 E-score.

As for ATACATCA, the binding signal was found to be 0.191 E-score.

For the sequence GGTCATAA, the binding signal was 0.0288 E-score.

As for GCGTGACC, the binding signal was -0.0195 E-score.

CTGGGAAC showed a binding signal of -0.222 E-score.

In turn, ACACTGCG showed a binding signal of -0.162 E-score.

For the sequence AGGCCCCT, the binding signal is -0.445 E-score.

Sequence ATATCCAT had a binding signal of 0.182 E-score.

CTTATAGA returned a binding signal of 0.112 E-score.

In the case of CACGGCTC, the binding signal was -0.111 E-score.

GGGTCGAC yielded a binding signal of -0.32 E-score.

AACTCAAG showed a binding signal of -0.00285 E-score.

With ACCAGCAT, the binding signal was -0.00397 E-score.

CATCAGGA displayed a binding signal of -0.0806 E-score.

CAGGAACG had a binding signal of -0.125 E-score.

Consider ATAGGAAT, for which the binding signal worked out at 0.275 E-score.

The sequence GTGGCGGA had a binding signal of -0.204 E-score.

In turn, ATTCACGG returned a binding signal of -0.121 E-score.

On to AAAGCCCA, for which the binding signal was -0.136 E-score.

In turn, ATATCTAG yielded a binding signal of 0.346 E-score.

In turn, ACGGGAAA showed a binding signal of 0.104 E-score.

For the sequence CGGGACGC, the binding signal is -0.347 E-score.

Turning to GATGACCA, the binding signal was -0.106 E-score.

CCTTCTGC: the binding signal is -0.222 E-score.

In turn, GTGACAAC gave a binding signal of -0.0442 E-score.

For the sequence AAGCGTAG, the binding signal was -0.0858 E-score.

Consider CGCATTAG, for which the binding signal was 0.143 E-score.

As to GACCACCA, the binding signal was -0.264 E-score.

Regarding ACCTGGTG, the binding signal is -0.368 E-score.

AGGCCGCC registered a binding signal of -0.353 E-score.

As to ACAGTTTG, the binding signal turned out to be 0.125 E-score.

The sequence ACCGACAG came in with a binding signal of 0.0868 E-score.

On to GCGAGAGA, for which the binding signal was -0.245 E-score.

The sequence CCCACGCA gave a binding signal of -0.316 E-score.

In the case of CTGTACCC, the binding signal was -0.0566 E-score.

Consider CTCGCAGC, for which the binding signal is -0.1 E-score.

For CCGTCACA, the binding signal was -0.181 E-score.

The sequence TACGCTCA showed a binding signal of -0.15 E-score.

Sequence ACTAACAT gave a binding signal of 0.167 E-score.

In turn, TCCTCGAA displayed a binding signal of -0.0637 E-score.

Consider CGTCGTAG, for which the binding signal amounted to 0.159 E-score.

CAGAGCTG showed a binding signal of -0.0573 E-score.

Sequence ATCGTTCC returned a binding signal of 0.141 E-score.

The sequence ATAGGGCC showed a binding signal of -0.0878 E-score.

GGAACCAA came in with a binding signal of 0.00103 E-score.

For the sequence CCGTCACC, the binding signal was -0.267 E-score.

ATCTTGGC: the binding signal turned out to be 0.14 E-score.

On to ATAGTCCA, for which the binding signal is 0.00872 E-score.

As to ATGAGCAA, the binding signal worked out at 0.12 E-score.

The sequence TCACACAA yielded a binding signal of 0.0655 E-score.

AGACTTAA yielded a binding signal of -0.0719 E-score.

The sequence GACTGTAC showed a binding signal of 0.0738 E-score.

ATGGGCCA showed a binding signal of -0.14 E-score.

Take ATTAGAGC: the binding signal was found to be 0.201 E-score.

The sequence AAGCCGTC displayed a binding signal of -0.213 E-score.

GTCACCCA came in with a binding signal of -0.248 E-score.

Take GGTCCGAC: the binding signal was -0.131 E-score.

Sequence ACACTAAA showed a binding signal of 0.174 E-score.

In the case of ATACCTCG, the binding signal is 0.174 E-score.

In turn, GTTGTATA gave a binding signal of 0.348 E-score.

For GAACGTTA, the binding signal was determined as 0.0838 E-score.

With AACTCTAT, the binding signal was 0.078 E-score.

On to CACACTAG, for which the binding signal was found to be 0.147 E-score.

In the case of GCTCAAGC, the binding signal is -0.291 E-score.

GCCGCGAA had a binding signal of -0.302 E-score.

ATGGCATC came in with a binding signal of -0.115 E-score.

AGAAATGG yielded a binding signal of 0.0767 E-score.

As to GAAAAGAA, the binding signal turned out to be 0.0486 E-score.

For AAGTCGCG, the binding signal is 0.0517 E-score.

Sequence ATTCTGGC yielded a binding signal of 0.00683 E-score.

As to CGTATTGC, the binding signal amounted to 0.109 E-score.

In turn, GCCCAGCA registered a binding signal of -0.176 E-score.

In turn, GCGGAGAC came in with a binding signal of -0.093 E-score.

In the case of ACATGTTG, the binding signal was -0.0393 E-score.
